# In the supplement of paper PMC10441789:
# Some of the results follow. Antibody binding of pooled human sera (four to six donors per pool; dilution not stated) to peptides of the Trypanosoma cruzi antigen TSSA on microarrays. Quantile-normalised fluorescence in arbitrary units, mean of duplicate arrays; higher = more binding. No active / inactive call. The uninfected pools are read here as the healthy donors of the same country. The strongest signals lie near the top of the scale (about 60,000).
# Test system: pooled sera of chronic Chagas disease patients, Argentina
# Assay: antibody binding signal (normalised fluorescence) (arbitrary fluorescence units); higher = stronger serum antibody binding to peptide
# Experimental: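 Microarray of 15-residue peptides over residues 30-55 of Trypanosoma cruzi TSSAII, each with 1 to 10 substitutions at naturally variable positions, probed with one serum pool per country.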
row,Sequence,antibody binding signal
1,PPSGKEKKPAAGGAP,1540
2,TENKPAAGGTPSPPG,45500
3,KPATGETPSQSGASS,35800
4,KENKPATGETPSQSG,37900
5,SGTDNKAAAGEAPSP,887
6,DNKAAAGETPSPPGA,258
7,SGKENKPATGGAPSQ,5100
8,PPSGTDKKTATGEAP,13000
9,SGTDNKPATGETPSP,40000
10,EKKAAAGEAPSQPGA,5670
11,SGTEKKAATGGTPSP,1960
12,KKTAAGEAPSQSGAS,218
13,PPSGKDKKTATGGTP,909
14,GTENKPAAGGAPSPP,44800
15,PPSGTDNKPATGETP,41900
16,TSSTPPSGKENKTAA,18200
17,KENKTATGEAPSPSG,14000
18,GKEKKAAAGGTPSQS,1080
19,SGKDNKPAAGETPSQ,1050
20,GTENKPAAGGTPSQS,45300

row,Sequence,antibody binding signal
1,TDNKAATGGAPSQPG,520
2,GTDNKTAAGGAPSPP,248
3,PPSGTEKKAATGGTP,25800
4,GKDNKTATGGAPSQP,953
5,KENKPATGGAPSPPG,511
6,GTEKKTATGETPSPP,1340
7,STPPSGKDNKTAAGE,33900
8,TPPSGTENKPATGET,48300
9,GTDNKPAAGGAPSQP,4130
10,KPAAGEAPSPSGASS,761
11,DKKAAAGGTPSPPGA,388
12,STPPSGTDNKAATGG,48800
13,NKTAAGETPSPPGAS,257
14,SSTPPSGTDKKPAAG,40100
15,PPSGTENKTAAGGAP,46600
16,PPSGKDKKPATGGTP,1160
17,TPPSGTDKKTATGEA,18300
18,GKENKAATGEAPSQP,30100
19,STPPSGKEKKAAAGG,13500
20,GKEKKPATGGAPSPP,4650
